# Reference: PubChem BioAssay AID686971 (National Center for Advancing Translational Sciences (NCATS), 2013)
# Out of some 360,000 compounds screened, about 7,500 (2.1%) were called active. The inconclusive results got no clear call from the source; some entries with a clear call stand among them for comparison. Calls follow the shape of the dose curve; as a rule, active = well fitted cell-killing curve with a large enough effect; inconclusive = small, poorly fitted or top-dose-only effect, or effect the other way, or another doubt; inactive = no such curve, though single readings can be large or run the other way. Potencies of inconclusive entries are left out as doubtful fits.
# Assay: qHTS for induction of synthetic lethality in tumor cells producing 2HG: qHTS for the HT-1080-IDH1KD cell line;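 as to activity, negative = toxicity: 0% = DMSO wells and -100% = cell-free medium wells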
# Settings: HT-1080 IDH1 knockdown viability, ATP luminescence, 48 h; activity, negative = toxicity: at 46.1 µM (top of the series) unless noted
# Outline: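 Assay cells: HT-1080 with IDH1 knockdown, 750 per well, RPMI/5% FBS. Exposure: 48 h at 37 °C following 2 h pre-incubation. Read: CellTiter-Glo luminescence; fitted concentration-response, curve class assigned.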
# Potency is read from the fitted curve at half-maximal effect; tags tell the direction and shape of the fitted curve.
SMILES,Potency,"activity, negative = toxicity"
O=C(Nc1ccc(-c2cn3c(n2)SCC3)cc1)c1ccc2ccccc2n1,inactive,–
FC(F)(F)c1cnc(NNC(=S)Nc2ccccc2Cl)c(Cl)c1,"inconclusive [cytotoxic, partial curve]",–
Cc1ccc(NC2CCCN(C(=O)c3ccoc3)C2)cc1C (stereo not given),inactive,–
CCOc1cccc(-c2cc(-c3n[nH]c(=S)n3CC)c3ccccc3n2)c1,inactive,–
Cc1ccc(CNC(=O)C2(C)CCN2C(=O)Cc2ccc(-c3ccccc3)cc2)cc1 (stereo not given),"inconclusive [cytotoxic, single point]",–
C/C(=N/NC(=O)c1cccs1)c1c(C)[nH]n(-c2nc3ccccc3s2)c1=O,active: 2.59 µM,–
CCc1nc2ccc(C(=O)NCCCN3CCN(c4ccccc4F)CC3)cc2nc1CC,"inconclusive [cytotoxic, partial curve]",–
O=C1C=C(Nc2ccc(Cl)cc2Cl)CC(c2ccco2)C1 (stereo not given),active: 2.31 µM,–
COc1ccccc1N1CCN(C(=O)C(NS(=O)(=O)c2cccs2)c2ccccc2)CC1 (stereo not given),inactive,–
COC(=O)c1ccccc1NS(=O)(=O)c1ccc(NC(C)=O)cc1,"inconclusive [cytotoxic, single point]",–
COc1cccc(CSc2nnc(CSc3nc4nc(C)cc(C)n4n3)s2)c1,"inconclusive [cytotoxic, full curve, poor fit]",–
CC(C)Nc1cc(C(C)(C)C)nc2c(-c3ccccc3)cnn12,"inconclusive [cytotoxic, single point]",–
CCOc1cc(NC(=S)NCCCN2CCOCC2)c(OCC)cc1NC(=O)c1cccs1,inactive,–
Cc1ccccc1Cn1c(NC2CCCC2)nc2c1c(=O)[nH]c(=O)n2C,inactive,–
CCCC[C@@H]1CC2=C(C(=O)OC(C)(C)O2)[C@@H](c2ccc(F)cc2)O1,inactive,–
COc1ccc(C(CC(=O)Nc2ccc(F)cc2)c2ccccc2)cc1 (stereo not given),"inconclusive [cytotoxic, single point]",–
Clc1cccc(-c2nc3c4ccccc4ccn3c2Cc2ccccc2)c1,"inconclusive [cytotoxic, single point]",–
Fc1ccc(C2c3[nH]c4ccccc4c3CCN2Cc2cccn2-c2ncccn2)cc1 (stereo not given),"inconclusive [cytotoxic, partial curve]",–
O=C(Cn1cnc2c(NCc3ccccc3)ncnc21)NCc1ccc2c(c1)OCO2,inactive,–
Cc1nc2c(c(C)nn2-c2ccccc2)c(C)c1CCC(=O)Nc1ccc(CN2CCCC2)cc1,active: 20.6 µM,–
Cc1ccc(OCCNC(=O)c2cccc(S(=O)(=O)NCc3ccccc3)c2)cc1,active: 7.31 µM,–
COc1ccc(NC(=S)NCCc2ccccc2)c(OC)c1,"inconclusive [cytotoxic, single point]",–
Nc1cc(OC(=O)c2cccs2)nn1S(=O)(=O)c1ccc(F)cc1,"inconclusive [cytotoxic, single point]",–
COc1ccc(OC)c(-n2c(C)cc(/C=C3\C(=N)N4N=C(CC(=O)N5CCOCC5)SC4=NC3=O)c2C)c1,"inconclusive [cytotoxic, partial curve]",–

SMILES,Potency,"activity, negative = toxicity"
CCCCN(C(=O)C1CCCO1)c1c(N)n(CCC)c(=O)[nH]c1=O (stereo not given),inactive,–
COc1ccc2c(c1)c(CC(=O)Nc1ccccc1OC)c(C)n2C(=O)c1ccc(Cl)cc1,inactive,–
COCCNC(=O)C1(C)Cc2c(-c3cccc(NC(C)=O)c3)ccnc2O1 (stereo not given),"inconclusive [cytotoxic, partial curve]",–
O=C(Nc1ccc(-c2nc3ncccc3o2)cc1)c1ccc([N+](=O)[O-])o1,"inconclusive [cytotoxic, single point]",–
CCN(CC)CCN(Cc1cc2ccc(C)cc2[nH]c1=O)C(=S)Nc1ccccc1C(=O)OC,active: 18.4 µM,–
CSc1n[nH]c2nc3c(c(=O)n12)C1(CCCC1)Cc1ccccc1-3,inactive,–
COc1cccc(C(=O)OCC(=O)NC(C)CCc2ccccc2)c1O (stereo not given),inactive,–
COc1ccc(-c2cnnc(N/N=C/c3c(C)nn(-c4ccccc4)c3Cl)n2)cc1,–,inconclusive: -0.158% [cytotoxic]
Cc1ccc2c(c1)N(Cc1ccccc1)C(=O)C(C)S2 (stereo not given),"inconclusive [rising, single point]",–
CN1Cc2c(N3CCOCC3)nc3sc(C(=O)c4ccc(Br)cc4)c(N)c3c2CC1(C)C,active: 13 µM,–
COc1ccccc1N=C(C)C1=C(O)CC(c2ccccc2)CC1=O (stereo not given),"inconclusive [cytotoxic, full curve]",–
CCC(c1nnnn1CCOC)N(Cc1cc2c(C)cc(C)cc2[nH]c1=O)CC1CCCO1 (stereo not given),"inconclusive [cytotoxic, single point]",–
O=C(Nc1ccc(Cl)cc1)Nc1csc([N+](=O)[O-])c1,active: 10.3 µM,–
COCCn1c(C)cc(C(=O)CSc2nc3ccccc3s2)c1C,"inconclusive [cytotoxic, single point]",–
O=C(CCc1nc2ccccc2c(=O)[nH]1)Nc1cc(Cl)ccc1N1CCCCC1,"inconclusive [cytotoxic, single point]",–
CC(C)C(N)c1csc(Nc2ccc(C(=O)c3ccccc3)cc2)n1 (stereo not given),"inconclusive [cytotoxic, single point]",–
CCC(c1nnnn1-c1c(C)cccc1C)N1CCN(C/C=C/c2ccccc2)CC1 (stereo not given),"inconclusive [cytotoxic, single point]",–
Cc1ccc(S(=O)(=O)N2CCOCC2)cc1NC(=O)COC(=O)c1ccc(Cl)s1,inactive,–
COc1cccc(-c2cnc3c(NC(C)=O)cc(-c4ccc(C(=O)NC5CC5)cc4)cn23)c1,active: 20.6 µM,–
NS(=O)(=O)c1ccc(CNS(=O)(=O)c2ccc3ccccc3c2)cc1,"inconclusive [cytotoxic, partial curve]",–
Cn1nc(CC(=O)Nc2cccc3ncccc23)c2ccccc2c1=O,"inconclusive [cytotoxic, single point]",–
CNC(=O)NC(=O)CSc1nc2cc(C(=O)OC)ccc2c(=O)n1-c1ccccc1,inactive,–
CCOc1ccc(C2c3[nH]c4ccccc4c3C[C@H]3C(=O)N(C4CCN(Cc5ccccc5)CC4)CC(=O)N23)cc1OC (stereo not given in full),"inconclusive [cytotoxic, single point]",–
COc1cccc2sc(N(CCCN(C)C)C(=O)c3ccc(S(=O)(=O)N4CCCc5ccccc54)cc3)nc12,"inconclusive [cytotoxic, single point]",–

SMILES,Potency,"activity, negative = toxicity"
CC1(Cc2cc(Cl)ccc2C(F)(F)F)C(=O)Nc2c(Cl)cccc21 (stereo not given),"inconclusive [cytotoxic, single point]",–
COCCn1c(SC(C)C(=O)NCC2CCCO2)nc2scc(-c3ccc(F)cc3)c2c1=O (stereo not given),inactive,–
CCCCNCc1cc(Br)c(OCc2cccs2)c(OC)c1,active: 20.6 µM,–
COc1cccc(C(=O)Nc2ccc3c(c2)CCCN3C(=O)c2cccs2)c1OC,"inconclusive [cytotoxic, single point]",–
C[C@H](O)[C@@H]1C(=O)N2CCc3c([nH]c4ccccc34)[C@@H]2C[C@@H]1N(C)C(=O)Nc1cc(Cl)cc(Cl)c1,"inconclusive [cytotoxic, single point]",–
Cc1cccc(-c2cc(C(=O)Nc3ccncc3)c3ccccc3n2)c1,"inconclusive [cytotoxic, single point]",–
CCN(CC)c1ccc2nc3ccc(N)cc3[n+](-c3ccccc3)c2c1,active: 5.8 µM,–
FC(F)(F)c1cccc(N2CCN(C(=S)NC3CCCC3)CC2)c1,"inconclusive [cytotoxic, single point]",–
CN(C(=O)CCN1C(=O)c2ccccc2C1=O)c1ccccc1,inactive,–
CN1C(=O)CSc2ccc(NC(=O)Nc3ccccn3)cc21,"inconclusive [cytotoxic, single point]",–
CCOC(=O)C1(C)CCN1C(=O)c1ccc(C)cc1 (stereo not given),"inconclusive [rising, single point]",–
CC(C)(C)C(=O)Cn1ncc(Br)c(Br)c1=O,"inconclusive [cytotoxic, single point]",–
O=C(NNc1ccccc1[N+](=O)[O-])Nc1ccc(Cl)c(Cl)c1,active: 18.4 µM,–
COC(=O)c1sccc1N/N=C/c1cccc(Oc2ccccc2)c1,"inconclusive [cytotoxic, single point]",–
CCOc1ccc(CN2CCN(CC3=Cc4cccc(OC)c4OC3)CC2CCO)cc1 (stereo not given),"inconclusive [cytotoxic, single point]",–
Clc1cccc(Cl)c1C[n+]1ccc2ccccc2c1,"inconclusive [cytotoxic, partial curve]",–
COc1ccc(NS(=O)(=O)c2ccc(O)c(NC(=O)c3cc4c(C)nn(-c5ccc(F)cc5)c4s3)c2)cc1,"inconclusive [cytotoxic, single point]",–
O=C(CN1CCN(S(=O)(=O)N2CCCCC2)CC1)Nc1ccc(Br)cc1,inactive,–
O=[N+]([O-])c1cc(/C=N/n2c(-c3ccncc3)n[nH]c2=S)ccc1Cl,inactive,–
CCN(c1ccccc1)S(=O)(=O)c1cc(C(=O)Nc2ccc(Br)cc2)ccc1F,"inconclusive [cytotoxic, partial curve, poor fit]",–
N/C(=N\OC(=O)c1cccc(F)c1)c1ccccn1,–,inconclusive: -0.121% [cytotoxic]
CC(C)N(Cc1nc(-c2ccccc2)no1)C(=O)C1CCCCC1,inactive,–
